# “And” between values parts separate entries of the source, which are not always exact repeats. Equal entries are not always repeated. In all, about 150,000 compounds went through this assay and about 180 (0.12%) were called active. Inconclusive results, whose numbers are uncertain, are shown with a selection of clear calls. The call rests on the fitted dose curve; in most records, active means well fitted cell-killing curve with a large enough effect; inconclusive means small, poorly fitted or top-dose-only effect, or effect the other way; inactive means flat fitted curve, though single readings scatter. Potencies beside an inconclusive call are fits to weak or partial responses and may not hold up.
# Test: GF-AFC viability counterscreen for inhibitors of alpha-synuclein gene (SNCA) expression; further: nearly all actives have a fitted effect of over 30% in size
# Details: HEK-293-SNCA-luc viability, GF-AFC fluorescence, 24 h; series mostly up to 57.1 µM
# How it was run: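 Cytotoxicity counterscreen: after 24 h compound treatment of genome-edited SNCA-luciferase HEK-293 cells, live-cell protease substrate GF-AFC read by fluorescence after 30 min; activity scaled between DMSO (0%) and medium-only (-100%), curves Hill-fitted.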
# Potency means the concentration at half of the fitted maximal effect; tags describe the fitted curve by direction and shape.
row,Compound,Potency
1,CC(C)C[C@H](NC(=O)[C@@H](O)[C@H](N)Cc1ccccc1)C(=O)O,"inconclusive: 48.2 µM [cytotoxic, single point] and inconclusive: 631 nM [cytotoxic, full curve, poor fit]"
2,N[C@@H](Cc1cnc[nH]1)C(=O)NCc1cccnc1Oc1ccc(F)cc1F,"inconclusive: 10 µM [cytotoxic, partial curve, poor fit]"
3,CN(C)C(=O)C1CN(C(=O)Cc2cccc(Cl)c2)CC12CCOCC2 (stereo not drawn),"inconclusive: 0.708 µM [rising, full curve, poor fit]"
4,COc1cc([C@@H]2c3cc4c(cc3[C@H](O)[C@H]3COC(=O)[C@H]23)OCO4)cc(OC)c1OC,"inconclusive: 0.0027 µM [cytotoxic, full curve, poor fit]"
5,Nc1ccc(-c2cccc(CN3CCCC3)c2)cc1,inactive
6,COc1ccc(N2CCN(C(=O)Cn3cnc4sc(C)c(S(=O)(=O)N5CCCCC5)c4c3=O)CC2)cc1,"inconclusive: 15.8 µM [cytotoxic, partial curve, poor fit]"
7,CN1CCCCCC(O)c2cc(C(=O)Nc3cccc(OC(F)(F)F)c3)ccc21 (stereo not drawn),inactive
8,COc1cccc(C2=CC(c3ccccc3F)n3ncc(C(=O)Nc4ccc(F)cc4)c3N2)c1 (stereo not drawn),"inconclusive: 25.1 µM [rising, single point]"
9,Cc1ccc(CN2CC[C@H](c3nc4ccc(C(F)(F)F)cc4[nH]3)C2)cc1,"inconclusive: 56.2 µM [cytotoxic, single point]"
10,COc1ccc(C2NC(=O)N(C)C3=C2C(=O)N(c2ccccc2)C3)cc1 (stereo not drawn),"inconclusive: 20 µM [cytotoxic, single point]"
11,COc1ccc(-c2nc(C)c(CCNC(=O)c3cccc(C)c3)s2)cc1OC,"inconclusive: 17.8 µM [cytotoxic, partial curve, poor fit]"
12,COCCn1c(=O)c(C(=O)NCc2ccc(C(F)(F)F)cc2)nc2cccnc21,inactive
13,COc1ccc(C(=O)Oc2c(Sc3ccc(C)cc3)c(C)nn2C(C)(C)C)c(OC)c1,"inconclusive: 39.8 µM [cytotoxic, single point]"
14,O=C(CSc1c2c(nc3ccc(Cl)cc13)CCCC2)N1CCCCC1,"inconclusive: 39.8 µM [cytotoxic, single point]"
15,CC1=C[C@@H](CN2CCN(c3cnccn3)CC2)[C@H](C(C)C)C[C@H]1Cc1nnc(-c2ccccc2)o1,"inconclusive: 39.8 µM [cytotoxic, single point]"
16,COc1ccc(C(=O)Nc2nc3c(s2)C[C@@H]2[C@](C)(CO)[C@H](O)CC[C@@]2(C)[C@@H]3CC(=O)N2CCC(C)CC2)cc1,"inconclusive: 25.1 µM [cytotoxic, partial curve, poor fit]"
17,O=C(NCC1CCCCC1)c1nc2sccn2c1-c1ccccc1,"inconclusive: 56.2 µM [cytotoxic, single point]"
18,CCOCCCn1c(=N)c(S(=O)(=O)c2ccccc2)cc2c(=O)n3cc(C)ccc3nc21,"inconclusive: 6.31 µM [rising, partial curve, poor fit]"
19,COc1ccccc1Cn1c(CNS(=O)(=O)c2c(C)cc(C)cc2C)nc2cccnc21,"inconclusive: 35.5 µM [cytotoxic, single point]"

row,Compound,Potency
1,C[C@H](NC(=O)Cc1cc(F)cc(F)c1)C(=O)N[C@@H]1C(=O)N(C)c2ccccc2-c2ccccc21,"inconclusive: 9.61 µM [cytotoxic, partial curve, poor fit]"
2,COc1ncc(-c2cc(C(=O)NCc3c(C)cc(C)[nH]c3=O)c3c(c2)N(C(C)C)CCO3)cn1,inactive
3,CN(C(=O)CSc1nc2ccc(NC(=O)c3ccc(F)cc3)cc2s1)c1ccccc1,"inconclusive: 39.8 µM [cytotoxic, single point]"
4,O=C(O)[C@H]1O[C@H](Oc2cc3oc(-c4ccccc4)cc(=O)c3c(O)c2O)[C@H](O)[C@@H](O)[C@H]1O,"inconclusive: 27.1 µM [cytotoxic, partial curve, poor fit]"
5,C[C@@H]1CN(C(=O)c2cc(-c3ccco3)nc3c(Cl)cccc23)C[C@]1(C)O,inactive
6,NC1CCCCN(C(=O)c2scc3c2CCCC3)C1 (stereo not drawn),inactive
7,c1ccc(-c2cc(CC3(NCc4ccc5c(c4)OCO5)COC3)no2)nc1,inactive
8,O=C(Cc1ccccn1)N1CCCN(c2nc3ncccc3o2)CC1,inactive
9,CN(C)C(=O)c1nc(-c2ccc(S(C)(=O)=O)cc2)c2cnccn12,"inconclusive: 28.2 µM [rising, partial curve]"
10,O=C(c1ccco1)N1CCC2(CCCN(Cc3ccccc3)C2)CC1,"inconclusive: 6.31 µM [cytotoxic, single point]"
11,CCCc1noc(CN(C)C(/C=C/c2ccccc2)C(=O)O)n1 (stereo not drawn),"inconclusive: 2.24 µM [rising, full curve, poor fit]"
12,O=C(Nc1ccccc1)N1CC(Oc2ccc(-c3noc(-c4ccncc4)n3)cc2)C1,inactive
13,COc1ccccc1NC(=O)Cn1c(=O)n(-c2ccccc2Cl)c(=O)c2sc3ccccc3c21,"inconclusive: 1.26 µM [cytotoxic, full curve, poor fit]"
14,O=C1[C@H]2CN(Cc3ccc(F)cc3Cl)C[C@H]2C(=O)N1CCN1CCc2ccccc2C1,"inconclusive: 39.8 µM [cytotoxic, single point]"
15,CC(C)CCN1CCCC(COc2ccccc2C(=O)NC2CC2)C1 (stereo not drawn),inactive
16,O=c1c(-c2ccccc2)nc2cnc(N3CCNCC3)nc2n1C1CC1,"inconclusive: 25.1 µM [rising, partial curve, poor fit]"
17,O=C(c1ccccc1Cl)N1CCCC(c2nn(-c3ccc(F)cc3)c(=O)[nH]2)C1 (stereo not drawn),inactive
18,CO[C@H]1C=CC=C(C)C(=O)NC2=CC(=O)C(NCCN(C)C)=C(C[C@@H](C)C[C@H](OC)[C@@H](O)[C@@H](C)C=C(C)[C@@H]1OC(N)=O)C2=O,"inconclusive: 30.4 µM [cytotoxic, partial curve, poor fit]"
19,CC(C)(C)c1ccc(-c2cc(C[C@H]3CNCC[C@H]3CC(=O)N3CCCCC3)no2)cc1,"inconclusive: 56.2 µM [cytotoxic, single point]"

# — PubChem BioAssay AID1671193 (National Center for Advancing Translational Sciences (NCATS), 2021)
